{"source": "PubChem BioAssay AID445", "about": "(National Center for Advancing Translational Sciences (NCATS), 2006)", "note": "In all, about 110,000 compounds went through this assay and about 40 (0.04%) were called active. Inconclusive means that the source gave no clear call. Such entries were picked first, then a sample of the others. Calls come from the whole dose curve; as a rule, active = well fitted curve in the direction sought with a large enough effect in the signal ratio (not every such curve was filed as active); inconclusive = small, poorly fitted or top-dose-only effect, or a change in a side signal; inactive = flat fitted curve, though single readings scatter; the % refers to the signal ratio. A potency beside an inconclusive call is a rough fit, not a confirmed value. Potency is the fitted concentration of half-maximal effect.", "data": [{"assay": "IkB Signaling;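 for IkBa stabilization activation: 0% = basal untreated cells and 100% = reference inhibitor full response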", "details": "ABC-DLBCL IkBa-CBG/CBR dual luciferase ratio (green luciferase fused to IkBa over red control in OCI-Ly3 lymphoma cells), 4 h; IkBa stabilization activation: at 57.1 µM (top of the series), scaled: untreated 0%, proteasome inhibitor 100% unless noted", "in_short": "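Luminescence ratio of IκBα-fused green versus native red beetle luciferase in OCI-Ly3 cells, 4 h post-doxycycline with compound; red signal alone, scaled from basal (0%) to zero light (-100%), flagged nonspecific or cytotoxic effects.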", "values": [{"smiles": "CC1(C)Cc2c(C#N)c(N3CCCC3)nc(-c3ccco3)c2CO1", "IkBa stabilization activation": "inconclusive: 13.5% [signal inhibitor]"}, {"smiles": "Cc1cccc2c1-c1sc(C(=O)Nc3ccccc3C(N)=O)cc1CO2", "Potency": "inconclusive: 39.8 nM [signal inhibitor]"}, {"smiles": "CCCCOc1ccc(S(=O)(=O)Nc2ccc(-c3ccc(N4CCCCC4)nn3)cc2)cc1", "IkBa stabilization activation": "inactive"}, {"smiles": "CSc1nc(N2CCOCC2)c2ccccc2n1", "IkBa stabilization activation": "inactive"}, {"smiles": "Cc1ccccc1OCC(=O)NCC(c1ccc(Cl)cc1)N1CCOCC1", "note": "(stereo unspecified)", "IkBa stabilization activation": "inconclusive: 3.12% [signal inhibitor]"}, {"smiles": "Cc1cc(C)cc(NC(c2cccc(Cl)c2)c2nnc(-c3ccccc3)o2)c1", "note": "(stereo unspecified)", "IkBa stabilization activation": "inconclusive: 2.44% [signal inhibitor]"}, {"smiles": "O=C(Nc1cccc2cccnc12)c1cccc2c(Br)cccc12", "IkBa stabilization activation": "inactive"}, {"smiles": "CCc1cc2c(cc3c(=O)n(CC(=O)NC4CCC(C)CC4)nc(CC)n32)s1", "note": "(stereo unspecified)", "IkBa stabilization activation": "inactive"}, {"smiles": "COc1ccc(-n2c(Cc3ccccc3)nnc2SCc2nc(-c3ccccc3C)no2)cc1", "IkBa stabilization activation": "inconclusive: 2.8% [signal inhibitor]"}, {"smiles": "CCOC(=O)c1sc2nc(N3CCOCC3)c3c(c2c1N)CCCC3", "IkBa stabilization activation": "inactive"}, {"smiles": "COc1ccc(NC(=O)Cn2ccn(Cc3ccccc3)c(=O)c2=O)cc1Cl", "IkBa stabilization activation": "inactive"}, {"smiles": "O=C1c2[nH]nc(-c3ccccc3O)c2C(c2cccc(Br)c2)N1Cc1ccncc1", "note": "(stereo unspecified)", "IkBa stabilization activation": "inconclusive: 13.7% [signal inhibitor]"}, {"smiles": "O=C(Nc1ccc(Br)cc1F)c1ccc2nc(CCc3ccccc3)oc2c1", "IkBa stabilization activation": "inconclusive: 3.76% [signal inhibitor]"}, {"smiles": "CN(C(=O)CSc1cn(CC(=O)N2CCCC2)c2ccccc12)c1ccccc1", "IkBa stabilization activation": "inactive"}, {"smiles": "O=c1c(-c2ccc(F)cc2)nc2cnc(N3CCOCC3)nc2n1C1CC1", "IkBa stabilization activation": "inactive: -0.146% [at 11.4 µM, scaled: untreated 0%, proteasome inhibitor 100%]"}, {"smiles": "Cc1cc2cc(CN(Cc3ccc4c(c3)OCO4)C(=O)c3ccco3)c(=O)[nH]c2cc1C", "IkBa stabilization activation": "inconclusive: 4.77% [signal inhibitor]"}, {"smiles": "CCCN(CCC)c1nc(NC2CCN(C(=O)OCC)CC2)nc(OC)n1", "IkBa stabilization activation": "inconclusive: 2.68% [signal inhibitor]"}, {"smiles": "CC1N=C2c3ccccc3N=C(SCC(=O)NCc3ccc(Cl)cc3)N2C1=O", "note": "(stereo unspecified)", "IkBa stabilization activation": "inconclusive: 0.241% [signal inhibitor]"}, {"smiles": "Cc1cc2c(C)cc(=O)oc2c2c1NCCC2", "IkBa stabilization activation": "inactive"}, {"smiles": "COc1cccc(-c2n[nH]c3c2C(c2cccc(O)c2)N(C)C3=O)c1", "note": "(stereo unspecified)", "IkBa stabilization activation": "inconclusive: 3.59% [signal inhibitor]"}, {"smiles": "Cc1cc(C)c2ccc(N)nc2c1O", "Potency": "active: 5010 nM"}]}]}
